Laboratory results from PMC5052711.
Entries with a single value are a further part of the results.

B1: hTRPA1: N747Q (protein)
parent chain: MKRSLRKMWRPGEKKEPQGVVYEDVPDDTEDFKESLKVVFEGSAYGLQNFNKQKKLKRCDDMDTFFLHYAAAEGQIELMEKITRDSSLEVLHEMDDYGNTPLHCAVEKNQIESVKFLLSRGANPNLRNFNMMAPLHIAVQGMNNEVMKVLLEHRTIDVNLEGENGNTAVIIACTTNNSEALQILLKKGAKPCKSNKWGCFPIHQAAFSGSKECMEIILRFGEEHGYSRQLHINFMNNGKATPLHLAVQNGDLEMIKMCLDNGAQIDPVEKGRCTAIHFAATQGATEIVKLMISSYSGSVDIVNTTDGCHETMLHRASLFDHHELADYLISVGADINKIDSEGRSPLILATASASWNIVNLLLSKGAQVDIKDNFGRNFLHLTVQQPYGLKNLRPEFMQMQQIKELVMDEDNDGCTPLHYACRQGGPGSVNNLLGFNVSIHSKSKDKKSPLHFAASYGRINTCQRLLQDISDTRLLNEGDLHGMTPLHLAAKNGHDKVVQLLLKKGALFLSDHNGWTALHHASMGGYTQTMKVILDTNLKCTDRLDEDGNTALHFAAREGHAKAVALLLSHNADIVLNKQQASFLHLALHNKRKEVVLTIIRSKRWDECLKIFSHNSPGNKCPITEMIEYLPECMKVLLDFCMLHSTEDKSCRDYYIEYNFKYLQCPLEFTKKTPTQDVIYEPLTALNAMVQNNRIELLNHPVCKEYLLMKWLAYGFRAHMMNLGSYCLGLIPMTILVVNIKPGMAFNSTGIINETSDHSEILDTTNSYLIKTCMILVFLSSIFGYCKEAGQIFQQKRNYFMDISNVLEWIIYTTGIIFVLPLFVEIPAHLQWQCGAIAVYFYWMNFLLYLQRFENCGIFIVMLEVILKTLLRSTVVFIFLLLAFGLSFYILLNLQDPFSSPLLSIIQTFSMMLGDINYRESFLEPYLRNELAHPVLSFAQLVSFTIFVPIVLMNLLIGLAVGDIAEVQKHASLKRIAMQVELHTSLEKKLPLWFLRKVDQKSTIVYPNKPRSGGMLFHIFCFLFCTGEIRQEIPNADKSLEMEILKQKYRLKDLTFLLEKQHELIKLIIQKMEIISETEDDDSHCSFQDRFKKEQMEQRNSRWNTVLRAVKAKTHHLEP
B2: hTRPA1: N753Q (protein)
parent chain: B1 parent chain
B3: hTRPA1: N747/753Q (protein)
parent chain: B1 parent chain

Test: fluorometric membrane depolarization, FlexStation
Settings: glycan lost, control: wild type

| Protein | other: agonist sensitivity, EC50 (AITC agonist) | other: agonist sensitivity, EC50 (menthol agonist) |
| --- | --- | --- |
| B1 | decreases, 4.2 vs 1.8 | decreases, 68.9 vs 29.2 |
| B2 | no change, 1.6 vs 1.8 | no change, 34.4 vs 29.2 |
| B3 | decreases, 3.0 vs 1.8 | decreases, 58.0 vs 29.2 |
